# Test results as given in the supplement of paper PMC8728848.
# The list shows a part of the results.
# B1: ASAL (Allium sativum), P83886 (protein)
# chain: MGRTTSSPKAMMRIATVAAILTILASTCMARNVLTNGEGLYAGQSLDVEQYKFIMQDDCNLVLYEYSTPIWASNTGVTGKNGCRAVMQRDGNFVVYDVNGRPVWASNSVRGNGNYILVLQKDRNVVIYGSDIWSTGTYRRSVGGAVVMAMNGTVDGGSVIGPVVVNQNVTAAIRKVGTGAA
# Assays:
# Assay in all cases: glycan array binding signal (z-score within array); higher = stronger binding
# Settings in all cases: glycan notation: IUPAC condensed, linker removed
# [1] = target: GlcNAc(b1-6)Gal(b1-4)GlcNAc
# Summary of the method: (§1)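 Columns mapping to the same glycan were averaged after glycan names were converted to IUPAC-condensed notation. The data come from 3228 arrays in the Consortium for Functional Glycomics database, limited to those with an available protein sequence. Binding is reported as a within-array Z-score averaged across arrays of one protein sequence and across linkers.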
# GlcNAc(b1-6)GalNAc = target: GlcNAc(b1-6)GalNAc
# Summary of the method: as §1
# GlcNAc3Prop(b1-4)GlcNAc = target: GlcNAc3Prop(b1-4)GlcNAc
# Summary of the method: as §1
# [2] = target: GlcNAc6S(b1-3)Gal(b1-4)GlcNAc
# Summary of the method: as §1
# Kdn(a2-3)Gal(b1-3)GalNAc = target: Kdn(a2-3)Gal(b1-3)GalNAc
# Summary of the method: as §1
# Kdn(a2-3)Gal(b1-3)GlcNAc = target: Kdn(a2-3)Gal(b1-3)GlcNAc
# Summary of the method: as §1
# Kdn(a2-3)Gal(b1-4)Glc = target: Kdn(a2-3)Gal(b1-4)Glc
# Summary of the method: as §1
# Kdn(a2-3)Gal(b1-4)GlcNAc = target: Kdn(a2-3)Gal(b1-4)GlcNAc
# Summary of the method: as §1
# [3] = target: Kdn(a2-3)Gal(b1-4)[Fuc(a1-3)]GlcNAc
# Summary of the method: as §1
# Kdn(a2-6)Gal(b1-4)GlcNAc = target: Kdn(a2-6)Gal(b1-4)GlcNAc
# Summary of the method: as §1
# [4] = target: Man(a1-2)Man(a1-2)Man(a1-3)Man
# Summary of the method: as §1
# [5] = target: Man(a1-2)Man(a1-2)Man(a1-6)[Man(a1-3)]Man
# Summary of the method: as §1
# Man(a1-2)Man(a1-3)Man = target: Man(a1-2)Man(a1-3)Man
# Summary of the method: as §1
# [6] = target: Man(a1-2)Man(a1-3)[Man(a1-2)Man(a1-6)]Man
# Summary of the method: as §1
# [7] = target: Man(a1-2)Man(a1-3)[Man(a1-2)Man(a1-6)]Man(a1-6)[Man(a1-2)Man(a1-2)Man(a1-3)]Man
# Summary of the method: as §1
# [8] = target: Man(a1-2)Man(a1-3)[Man(a1-2)Man(a1-6)]Man(a1-6)[Man(a1-2)Man(a1-2)Man(a1-3)]Man(b1-4)GlcNAc(b1-4)GlcNAc
# Summary of the method: as §1
# [9] = target: Man(a1-2)Man(a1-3)[Man(a1-6)]Man(a1-6)[Man(a1-2)Man(a1-3)]Man(b1-4)GlcNAc(b1-4)GlcNAc
# Summary of the method: as §1
# [10] = target: Man(a1-2)Man(a1-6)[Man(a1-3)]Man(a1-6)[Man(a1-2)Man(a1-2)Man(a1-3)]Man
# Summary of the method: as §1
# [11] = target: Man(a1-2)Man(a1-6)[Man(a1-3)]Man(a1-6)[Man(a1-2)Man(a1-2)Man(a1-3)]Man(b1-4)GlcNAc(b1-4)GlcNAc
# Summary of the method: as §1
# Man(a1-3)[Man(a1-6)]Man = target: Man(a1-3)[Man(a1-6)]Man
# Summary of the method: as §1
# [12] = target: Man(a1-3)[Man(a1-6)]Man(a1-6)[Man(a1-2)Man(a1-3)]Man(b1-4)GlcNAc(b1-4)GlcNAc
# Summary of the method: as §1
# [13] = target: Man(a1-3)[Man(a1-6)]Man(a1-6)[Man(a1-3)]Man
# Summary of the method: as §1
# [14] = target: Man(a1-3)[Man(a1-6)]Man(a1-6)[Man(a1-3)]Man(b1-4)GlcNAc(b1-4)GlcNAc
# Summary of the method: as §1
# [15] = target: Man(a1-3)[Man(a1-6)]Man(b1-4)GlcNAc(b1-4)GlcNAc
# Summary of the method: as §1
# Man(a1-6)Man = target: Man(a1-6)Man
# Summary of the method: as §1
# Man(b1-4)GlcNAc = target: Man(b1-4)GlcNAc
# Summary of the method: as §1
# Neu5Ac(a2-3)Gal = target: Neu5Ac(a2-3)Gal
# Summary of the method: as §1
# [16] = target: Neu5Ac(a2-3)Gal(b1-3)GalNAc
# Summary of the method: as §1
# [17] = target: Neu5Ac(a2-3)Gal(b1-3)GalNAc(b1-3)Gal(a1-4)Gal(b1-4)Glc
# Summary of the method: as §1
# [18] = target: Neu5Ac(a2-3)Gal(b1-3)GalNAc(b1-4)[Neu5Ac(a2-3)]Gal(b1-4)Glc
# Summary of the method: as §1
# [19] = target: Neu5Ac(a2-3)Gal(b1-3)GalNAc(b1-4)[Neu5Ac(a2-8)Neu5Ac(a2-3)]Gal(b1-4)Glc
# Summary of the method: as §1
# [20] = target: Neu5Ac(a2-3)Gal(b1-3)GalNAc6S
# Summary of the method: as §1
# [21] = target: Neu5Ac(a2-3)Gal(b1-3)GlcNAc
# Summary of the method: as §1
# [22] = target: Neu5Ac(a2-3)Gal(b1-3)GlcNAc(b1-2)Man(a1-3)[Neu5Ac(a2-3)Gal(b1-3)GlcNAc(b1-2)Man(a1-6)]Man(b1-4)GlcNAc(b1-4)GlcNAc
# Summary of the method: as §1
# [23] = target: Neu5Ac(a2-3)Gal(b1-3)GlcNAc(b1-3)Gal(b1-3)GlcNAc
# Summary of the method: as §1
# [24] = target: Neu5Ac(a2-3)Gal(b1-3)GlcNAc(b1-3)Gal(b1-4)GlcNAc
# Summary of the method: as §1
# [25] = target: Neu5Ac(a2-3)Gal(b1-3)GlcNAc(b1-3)GalNAc
# Summary of the method: as §1
# [26] = target: Neu5Ac(a2-3)Gal(b1-3)GlcNAc6S
# Summary of the method: as §1
# [27] = target: Neu5Ac(a2-3)Gal(b1-3)[Fuc(a1-4)]GlcNAc
# Summary of the method: as §1
# [28] = target: Neu5Ac(a2-3)Gal(b1-3)[Fuc(a1-4)]GlcNAc(b1-3)Gal(b1-3)[Fuc(a1-4)]GlcNAc
# Summary of the method: as §1
# [29] = target: Neu5Ac(a2-3)Gal(b1-3)[Fuc(a1-4)]GlcNAc(b1-3)Gal(b1-4)[Fuc(a1-3)]GlcNAc
# Summary of the method: as §1
# [30] = target: Neu5Ac(a2-3)Gal(b1-3)[Neu5Ac(a2-3)Gal(b1-4)]GlcNAc
# Summary of the method: as §1
# [31] = target: Neu5Ac(a2-3)Gal(b1-3)[Neu5Ac(a2-6)]GalNAc
# Summary of the method: as §1
# Neu5Ac(a2-3)Gal(b1-4)Glc = target: Neu5Ac(a2-3)Gal(b1-4)Glc
# Summary of the method: as §1
# [32] = target: Neu5Ac(a2-3)Gal(b1-4)GlcNAc
# Summary of the method: as §1
binder,measurement,setting,value
B1,glycan array binding signal (z-score),[1],-0.31
same,glycan array binding signal (z-score),GlcNAc(b1-6)GalNAc,-0.283
same,glycan array binding signal (z-score),GlcNAc3Prop(b1-4)GlcNAc,-0.162
same,glycan array binding signal (z-score),[2],-0.065
same,glycan array binding signal (z-score),Kdn(a2-3)Gal(b1-3)GalNAc,-0.296
same,glycan array binding signal (z-score),Kdn(a2-3)Gal(b1-3)GlcNAc,-0.258
same,glycan array binding signal (z-score),Kdn(a2-3)Gal(b1-4)Glc,-0.25
same,glycan array binding signal (z-score),Kdn(a2-3)Gal(b1-4)GlcNAc,-0.273
same,glycan array binding signal (z-score),[3],-0.201
same,glycan array binding signal (z-score),Kdn(a2-6)Gal(b1-4)GlcNAc,-0.255
same,glycan array binding signal (z-score),[4],2.05
same,glycan array binding signal (z-score),[5],2.53
same,glycan array binding signal (z-score),Man(a1-2)Man(a1-3)Man,-0.312
same,glycan array binding signal (z-score),[6],0.693
same,glycan array binding signal (z-score),[7],4.09
same,glycan array binding signal (z-score),[8],0.295
same,glycan array binding signal (z-score),[9],1.68
same,glycan array binding signal (z-score),[10],3.13
same,glycan array binding signal (z-score),[11],3.67
same,glycan array binding signal (z-score),Man(a1-3)[Man(a1-6)]Man,-0.229
same,glycan array binding signal (z-score),[12],1.47
same,glycan array binding signal (z-score),[13],-0.135
same,glycan array binding signal (z-score),[14],0.276
same,glycan array binding signal (z-score),[15],1.42
same,glycan array binding signal (z-score),Man(a1-6)Man,-0.26
same,glycan array binding signal (z-score),Man(b1-4)GlcNAc,-0.236
same,glycan array binding signal (z-score),Neu5Ac(a2-3)Gal,-0.234
same,glycan array binding signal (z-score),[16],-0.257
same,glycan array binding signal (z-score),[17],-0.272
same,glycan array binding signal (z-score),[18],-0.279
same,glycan array binding signal (z-score),[19],-0.186
same,glycan array binding signal (z-score),[20],-0.262
same,glycan array binding signal (z-score),[21],-0.245
same,glycan array binding signal (z-score),[22],-0.226
same,glycan array binding signal (z-score),[23],-0.268
same,glycan array binding signal (z-score),[24],-0.184
same,glycan array binding signal (z-score),[25],-0.269
same,glycan array binding signal (z-score),[26],-0.278
same,glycan array binding signal (z-score),[27],-0.285
same,glycan array binding signal (z-score),[28],-0.212
same,glycan array binding signal (z-score),[29],-0.189
same,glycan array binding signal (z-score),[30],-0.222
same,glycan array binding signal (z-score),[31],-0.269
same,glycan array binding signal (z-score),Neu5Ac(a2-3)Gal(b1-4)Glc,-0.28
same,glycan array binding signal (z-score),[32],-0.226
